Data published in patent publication US11542313B2, “Incretin analogs and uses thereof” (Eli Lilly and Company, priority 2017, dated 2023).
For at least one compound, name, drawing or mass did not settle the structure. *1 amine or outer side, *2 acyl side, *3 side chain or, on linkers, in order; H or OH if unused. Where a SMILES comes first, the peptide text is derived from it. Side-chain parts run from the residue outwards. [ ]: non-standard residue; d: D form. The star is where a group is joined. C20 diacid = O=C(O)CCCCCCCCCCCCCCCCCCC(=O)*; γGlu = O=C(O)[C@H](CCC(=O)[*:2])N[*:1]; αMeL = CC(C)C[C@](C)(N)C(=O)O; AEEA = NCCOCCOCC(=O)O; Aib = CC(C)(N)C(=O)O

System: diet-induced obese (DIO) C57BL/6 mice
Test: Diet-induced obese C57BL/6 mice, 15-day study
Format: in vivo, mouse
Details: for Body weight Δ from vehicle: day 15, DIO mice; for Body weight % change: days 1 to 15, DIO mice; for ALT / Cholesterol / Glucose / Liver Triglycerides / Plasma Insulin: 3 nmol/kg, after fifteen days, DIO mice, mean ± SEM
Protocol: The exemplary incretin analogs as described herein are proposed as a treatment not only for diabetes but also for metabolic syndrome, which is a collection of co-morbidities (dyslipidemia, obesity, hepatic steatosis, etc.) associated with insulin resistance and diabetes. To investigate the effects of the exemplary analogs on parameters such as weight loss, metabolism, body composition and hepatic steatosis, they were dosed to C57BL/6 diet-induced obese (DIO) mice. These animals, although not diabetic, display insulin resistance, dyslipidemia and hepatic steatosis, all characteristics of metabolic syndrome, after being placed on a high-fat diet for 18 weeks.
Specifically, DIO male C57BL/6 mice 24 to 25 weeks old maintained on a calorie-rich diet are used in the following studies. Mice are individually housed in a temperature-controlled (24° C.) facility with 12-hour light/dark cycle (lights on 22:00) and free access to food (TD95217) and water. After a minimum of 2 weeks acclimation to the facility, the mice are randomized according to their body weight, so each experimental group of animals would have similar body weight. The body weights range from 40 to 51 g.
All groups contain 5-6 mice. Vehicle, exemplary analogs dissolved in vehicle (40 mM Tris-HCl at pH 8.0), and semaglutide dissolved in vehicle are administered by subcutaneous (SC) injection (10 mL/kg) to ad libitum fed DIO mice 30 to 90 minutes prior to the onset of the dark cycle every 3 days for 15 days. SC injections are made on Day 1, 4, 7, 10 and 13. Body weight and food intake are measured daily throughout the study.
Absolute changes in body weight are calculated by subtracting the body weight of the same animal prior to the first injection of vehicle, analog or semaglutide. On Days 0 and 15, total fat mass is measured by nuclear magnetic resonance (NMR) using an Echo Medical System Instrument (Houston, Tex.). On Day 15, animals are sacrificed prior to dark photoperiod, and the livers are removed and frozen. Liver triglycerides, determined from homogenates of livers collected at sacrifice, and plasma cholesterol are measured on a Hitachi Modular P clinical analyzer.
Data are presented as mean±SEM of 5-6 animals per group in Tables 7 and 8 below. Statistical analysis is performed using repeated measures ANOVA, followed by Dunnett's method for multiple comparisons. Significant differences are identified at p<0.05.

| Structure (SMILES) | Body weight Δ from vehicle (10 nmol/kg SC every 3 days) [g] | Body weight % change (10 nmol/kg SC every 3 days) [%] | Body weight Δ from vehicle (3 nmol/kg SC every 3 days) [g] | Body weight % change (3 nmol/kg SC every 3 days) [%] | ALT [IU/L] | Cholesterol [mg/dL] | Glucose [mg/dL] | Liver Triglycerides [mg/g tissue] | Plasma Insulin [pg/mL] | Body weight Δ from vehicle (30 nmol/kg SC every 3 days) [g] | Body weight % change (30 nmol/kg SC every 3 days) [%] |
| --- | --- | --- | --- | --- | --- | --- | --- | --- | --- | --- | --- |
| CC[C@H](C)[C@H](NC(=O)[C@H](Cc1ccccc1)NC(=O)[C@H](C)NC(=O)[C@H](CCC(N)=O)NC(=O)[C@H](C)NC(=O)[C@H](C)NC(=O)[C@H](CCCCNC(=O)COCCOCCNC(=O)COCCOCCNC(=O)CC[C@H](NC(=O)CCCCCCCCCCCCCCCCCCC(=O)O)C(=O)O)NC(=O)[C@H](CCCCN)NC(=O)[C@H](CC(=O)O)NC(=O)[C@H](CC(C)C)NC(=O)[C@](C)(CC(C)C)NC(=O)[C@@H](NC(=O)[C@H](CO)NC(=O)[C@H](Cc1ccc(O)cc1)NC(=O)[C@H](CC(=O)O)NC(=O)[C@H](CO)NC(=O)[C@@H](NC(=O)[C@H](Cc1ccccc1)NC(=O)[C@@H](NC(=O)CNC(=O)[C@H](CCC(N)=O)NC(=O)C(C)(C)NC(=O)[C@@H](N)Cc1ccc(O)cc1)[C@@H](C)O)[C@@H](C)O)[C@@H](C)CC)C(=O)N[C@@H](CCC(=O)O)C(=O)N[C@@H](Cc1ccc(O)cc1)C(=O)N[C@@H](CC(C)C)C(=O)N[C@@H](CC(C)C)C(=O)N[C@@H](CCC(=O)O)C(=O)NC(C)(C)C(=O)NCC(=O)N1CCC[C@H]1C(=O)N[C@@H](CO)C(=O)N[C@@H](CO)C(=O)NCC(=O)N[C@@H](C)C(=O)N1CCC[C@H]1C(=O)N1CCC[C@H]1C(=O)N1CCC[C@H]1C(=O)N[C@@H](CO)C(N)=O [Example 5] (H-Y[Aib]QGTFTSDYSI[αMeL]LDKK([AEEA-AEEA-γGlu-C20 diacid])AAQAFIEYLLE[Aib]GPSSGAPPPS-NH2) | -12.30 ± 2.20 | −25.40 ± 4.56 | – | – | – | – | – | – | – | – | – |
| CC[C@H](C)[C@H](NC(=O)[C@H](Cc1ccccc1)NC(=O)[C@H](C)NC(=O)[C@H](CCC(N)=O)NC(=O)[C@H](C)NC(=O)[C@H](C)NC(=O)[C@H](CCCCNC(=O)COCCOCCNC(=O)COCCOCCNC(=O)CC[C@H](NC(=O)CCCCCCCCCCCCCCCCCCC(=O)O)C(=O)O)NC(=O)[C@H](CCCCN)NC(=O)[C@H](CC(=O)O)NC(=O)[C@H](CC(C)C)NC(=O)[C@](C)(CC(C)C)NC(=O)[C@@H](NC(=O)[C@H](CO)NC(=O)[C@H](Cc1ccc(O)cc1)NC(=O)[C@H](CC(=O)O)NC(=O)[C@H](CO)NC(=O)[C@@H](NC(=O)[C@H](Cc1ccccc1)NC(=O)[C@@H](NC(=O)CNC(=O)[C@H](CCC(N)=O)NC(=O)C(C)(C)NC(=O)[C@@H](N)Cc1ccc(O)cc1)[C@@H](C)O)[C@@H](C)O)[C@@H](C)CC)C(=O)N[C@@H](CCC(=O)O)C(=O)N[C@@H](Cc1ccc(O)cc1)C(=O)N[C@@H](CC(C)C)C(=O)N[C@@H](CC(C)C)C(=O)N[C@@H](CCC(=O)O)C(=O)NCC(=O)NCC(=O)N1CCC[C@H]1C(=O)N[C@@H](CO)C(=O)N[C@@H](CO)C(=O)NCC(=O)N[C@@H](C)C(=O)N1CCC[C@H]1C(=O)N1CCC[C@H]1C(=O)N1CCC[C@H]1C(=O)N[C@@H](CO)C(N)=O [Example 6] (H-Y[Aib]QGTFTSDYSI[αMeL]LDKK([AEEA-AEEA-γGlu-C20 diacid])AAQAFIEYLLEGGPSSGAPPPS-NH2; N-terminus assumed) | -11.72 ± 1.78 | −24.02 ± 3.31 | – | – | – | – | – | – | – | – | – |
| CC[C@H](C)[C@H](NC(=O)[C@H](Cc1ccccc1)NC(=O)[C@H](C)NC(=O)[C@H](Cc1c[nH]cn1)NC(=O)[C@H](CCC(N)=O)NC(=O)[C@H](C)NC(=O)[C@H](CCCCNC(=O)COCCOCCNC(=O)COCCOCCNC(=O)CC[C@H](NC(=O)CCCCCCCCCCCCCCCCCCC(=O)O)C(=O)O)NC(=O)[C@H](CCCCN)NC(=O)[C@H](CC(=O)O)NC(=O)[C@H](CC(C)C)NC(=O)[C@](C)(CC(C)C)NC(=O)[C@@H](NC(=O)[C@H](CO)NC(=O)[C@H](Cc1ccc(O)cc1)NC(=O)[C@H](CC(=O)O)NC(=O)[C@H](CO)NC(=O)[C@@H](NC(=O)[C@H](Cc1ccccc1)NC(=O)[C@@H](NC(=O)CNC(=O)[C@H](CCC(N)=O)NC(=O)C(C)(C)NC(=O)[C@@H](N)Cc1ccc(O)cc1)[C@@H](C)O)[C@@H](C)O)[C@@H](C)CC)C(=O)N[C@@H](CCC(=O)O)C(=O)N[C@@H](Cc1ccc(O)cc1)C(=O)N[C@@H](CC(C)C)C(=O)N[C@@H](CC(C)C)C(=O)N[C@@H](CCC(=O)O)C(=O)NCC(=O)NCC(=O)N1CCC[C@H]1C(=O)N[C@@H](CO)C(=O)N[C@@H](CO)C(=O)NCC(=O)N[C@@H](C)C(=O)N1CCC[C@H]1C(=O)N1CCC[C@H]1C(=O)N1CCC[C@H]1C(=O)N[C@@H](CO)C(N)=O [Example 7] (H-Y[Aib]QGTFTSDYSI[αMeL]LDKK([AEEA-AEEA-γGlu-C20 diacid])AQHAFIEYLLEGGPSSGAPPPS-NH2) | -8.38 ± 0.50 | −19.65 ± 1.27 | -5.26 ± 0.49 | −12.22 ± 1.19 | 51.0 ± 7.78 | 169.2 ± 11.79 | 109.3 ± 5.78 | 97.9 ± 18.2 | 2656 ± 949 | -16.26 ± 2.23 | – |
| CC[C@H](C)[C@H](NC(=O)[C@H](Cc1ccccc1)NC(=O)[C@H](C)NC(=O)[C@H](Cc1c[nH]cn1)NC(=O)[C@H](CCC(N)=O)NC(=O)[C@H](C)NC(=O)[C@H](CCCCNC(=O)COCCOCCNC(=O)CC[C@H](NC(=O)CCCCCCCCCCCCCCCCCCC(=O)O)C(=O)O)NC(=O)[C@H](CCCCN)NC(=O)[C@H](CC(=O)O)NC(=O)[C@H](CC(C)C)NC(=O)[C@](C)(CC(C)C)NC(=O)[C@@H](NC(=O)[C@H](CO)NC(=O)[C@H](Cc1ccc(O)cc1)NC(=O)[C@H](CC(=O)O)NC(=O)[C@H](CO)NC(=O)[C@@H](NC(=O)[C@H](Cc1ccccc1)NC(=O)[C@@H](NC(=O)CNC(=O)[C@H](CCC(N)=O)NC(=O)C(C)(C)NC(=O)[C@@H](N)Cc1ccc(O)cc1)[C@@H](C)O)[C@@H](C)O)[C@@H](C)CC)C(=O)N[C@@H](CCC(=O)O)C(=O)N[C@@H](Cc1ccc(O)cc1)C(=O)N[C@@H](CC(C)C)C(=O)N[C@@H](CC(C)C)C(=O)N[C@@H](CCC(=O)O)C(=O)NCC(=O)NCC(=O)N1CCC[C@H]1C(=O)N[C@@H](CO)C(=O)N[C@@H](CO)C(=O)NCC(=O)N[C@@H](C)C(=O)N1CCC[C@H]1C(=O)N1CCC[C@H]1C(=O)N1CCC[C@H]1C(=O)N[C@@H](CO)C(N)=O [Example 10] (H-Y[Aib]QGTFTSDYSI[αMeL]LDKK([AEEA-γGlu-C20 diacid])AQHAFIEYLLEGGPSSGAPPPS-NH2; N-terminus assumed) | -10.98 ± 0.76 | −24.95 ± 1.99 | -5.4 ± 0.49 | −12.70 ± 1.17 | 77.2 ± 9.35 | 181.0 ± 6.20 | 109.6 ± 4.81 | 126.8 ± 17.0 | 571.4 ± 158.4 | -17.08 ± 1.43 | −39.51 ± 3.84 |
| CC[C@H](C)[C@H](NC(=O)[C@H](Cc1ccccc1)NC(=O)[C@H](C)NC(=O)C(C)(C)NC(=O)[C@H](CCC(N)=O)NC(=O)[C@H](C)NC(=O)[C@H](CCCCNC(=O)COCCOCCNC(=O)CC[C@H](NC(=O)CCCCCCCCCCCCCCCCCCC(=O)O)C(=O)O)NC(=O)[C@H](CCCCN)NC(=O)[C@H](CC(=O)O)NC(=O)[C@H](CC(C)C)NC(=O)[C@H](CC(C)C)NC(=O)[C@@H](NC(=O)[C@H](CO)NC(=O)[C@H](Cc1ccc(O)cc1)NC(=O)[C@H](CC(=O)O)NC(=O)[C@H](CO)NC(=O)[C@@H](NC(=O)[C@H](Cc1ccccc1)NC(=O)[C@@H](NC(=O)CNC(=O)[C@H](CCC(N)=O)NC(=O)C(C)(C)NC(=O)[C@@H](N)Cc1ccc(O)cc1)[C@@H](C)O)[C@@H](C)O)[C@@H](C)CC)C(=O)N[C@@H](CCC(=O)O)C(=O)N[C@@H](Cc1ccc(O)cc1)C(=O)N[C@@H](CC(C)C)C(=O)N[C@@H](CC(C)C)C(=O)N[C@@H](CCC(=O)O)C(=O)NC(C)(C)C(=O)NCC(=O)N1CCC[C@H]1C(=O)N[C@@H](CO)C(=O)N[C@@H](CO)C(=O)NCC(=O)N[C@@H](C)C(=O)N1CCC[C@H]1C(=O)N1CCC[C@H]1C(=O)N1CCC[C@H]1C(=O)N[C@@H](CO)C(N)=O [Example 20] (H-Y[Aib]QGTFTSDYSILLDKK([AEEA-γGlu-C20 diacid])AQ[Aib]AFIEYLLE[Aib]GPSSGAPPPS-NH2; N-terminus assumed) | -10.76 ± 1.57 | −24.42 ± 3.74 | -4.18 ± 0.50 | −8.98 ± 1.26 | – | – | – | – | – | -23.00 ± 0.59 | −52.14 ± 1.74 |
